According to patent US3965109A, “Certain aryl amino pyridines” (priority 1971, dated 1976):
For some of these results: At least one read-out could not be matched to a standard name with certainty. Some compounds share one range, which may span the group rather than tell each member. For some of these results: At least one structure is not confirmed: it was looked up by name or label, or the drawing left a doubt.

Key:
Botrodiplodia theobromae = assay: Antifungal agar test (F11); type: cell-based; conditions: 50 ppm; 6 days
Penicillium digitatum = assay: Antifungal agar test (F8); type: cell-based; conditions: 50 ppm; 6 days
Diplodia natalensis = assay: Antifungal agar test (F4); type: cell-based; conditions: 50 ppm; 6 days
[1] = tested on: Pseudomonas mors-prunorum; assay: Antibacterial agar test (B8); type: cell-based; conditions: 50 ppm; 5 days
Phoma exigua = assay: Antifungal agar test (F9); type: cell-based; conditions: 50 ppm; 6 days
Phomopsis citri = assay: Antifungal agar test (F5); type: cell-based; conditions: 50 ppm; 6 days
Gloeosporium musarum = assay: Antifungal agar test (F7); type: cell-based; conditions: 50 ppm; 6 days
Erwinia amylovora = assay: Antibacterial agar test (B10); type: cell-based; conditions: 50 ppm; 5 days
Fusarium caeruleum = assay: Antifungal agar test (F12); type: cell-based; conditions: 50 ppm; 6 days
Nigrospora sphaerica = assay: Antifungal agar test (F1); type: cell-based; conditions: 50 ppm; 6 days
Alternaria citri = assay: Antifungal agar test (F3); type: cell-based; conditions: 50 ppm; 6 days
Botrytis tulipae = assay: Antifungal agar test (F10); type: cell-based; conditions: 50 ppm; 6 days
[2] = tested on: Phytophthora eitrophthora; assay: Antifungal agar test (F2); type: cell-based; conditions: 50 ppm; 6 days
Ceratosystis paradoxa = assay: Antifungal agar test (F6); type: cell-based; conditions: 50 ppm; 6 days
Pseudomonas phaseolicola = assay: Antibacterial agar test (B9); type: cell-based; conditions: 50 ppm; 5 days
[3] = tested on: mixed culture of green algae; assay: Test for algicidal activity; type: cell-based; conditions: 20 ppm; 1 week
[4] = tested on: Botrytis cinerea (chocolate spot of beans); assay: Fungicidal test against foliar disease H (foliage spray plus soil drench); type: in vivo; conditions: 3 days
[5] = tested on: Aedes aegypti (mosquito larvae); assay: Pest toxicity test; conditions: in vivo
[6] = tested on: Podosphaera leucotricha (apple); assay: Fungicidal test against foliar disease F (foliage spray plus soil drench); type: in vivo; conditions: 100 ppm spray and drench; 7 days
[7] = tested on: Venturia inaequalis (apple); assay: Fungicidal test against foliar disease G (foliage spray plus soil drench); type: in vivo; conditions: 25 ppm; 21 days
Method: This Example illustrates the fungicidal properties of compounds used as active ingredients in the compositions of the invention. The compounds were tested against a wide variety of foliar fungal diseases of plants. In the test, a composition comprising an aqueous solution or suspension of the test compound was sprayed on to the foliage or uninfected plants; the soil in which the plants were growing was also drenched with the composition. The compositions used for spraying and drencing contained 100 parts per million (ppm.) of the test compound except where otherwise stated in the table of results below. After spraying and drenching, the plants were then exposed to infection with the diseases it was desired to control, along with control plants not treated with the compound. After a period of days, depending upon the particular disease, the extent of the disease was visually assessed, as a percentage of the disease established upon the control plants which had not been treated with the compound under test, according to the grading scheme below
In Table 2 below the names of the disease is given in the first column, and in the second column is given the time which elapsed between exposing the plants to infection and assessing the amount of disease.

Structure (SMILES) | Antifungal activity grading F11 (Botrodiplodia theobromae) | Antifungal activity grading F8 (Penicillium digitatum) | Antifungal activity grading F4 (Diplodia natalensis) | Antibacterial activity grading B8 [1] | Antifungal activity grading F9 (Phoma exigua) | Antifungal activity grading F5 (Phomopsis citri) | Antifungal activity grading F7 (Gloeosporium musarum) | Antibacterial activity grading B10 (Erwinia amylovora) | Antifungal activity grading F12 (Fusarium caeruleum) | Antifungal activity grading F1 (Nigrospora sphaerica) | Antifungal activity grading F3 (Alternaria citri) | Antifungal activity grading F10 (Botrytis tulipae) | Antifungal activity grading F2 [2] | Antifungal activity grading F6 (Ceratosystis paradoxa) | Antibacterial activity grading B9 (Pseudomonas phaseolicola) | Algal growth grading [3] | Amount of disease grading, disease F (Table 4) [6] | other results
O=[N+]([O-])c1ccc(Nc2c(Cl)c(F)nc(F)c2Cl)c([N+](=O)[O-])c1 [Compound 1, 3,5-dichloro-2,6-difluoro-4(2,4-dinitroanilinopyridine] | 3 (0 to 5) | 3 (0 to 5) | 3 (0 to 5) | 3 (0 to 5) | 3 (0 to 5) | 3 (0 to 5) | 3 (0 to 5) | 3 (0 to 5) | 3 (0 to 5) | 3 (0 to 5) | 3 (0 to 5) | 3 (0 to 5) | 3 (0 to 5) | 3 (0 to 5) | 3 (0 to 5) |  |  | 
O=[N+]([O-])c1cc([N+](=O)[O-])c(Nc2c(Cl)c(F)nc(F)c2Cl)cc1F [Compound 6, 3,5-Dichloro-2,6-difluoro-4(2,4-dinitro-5-fluoroanilino)pyridine] |  |  |  | 1 (26 to 60) |  |  |  | 1 (26 to 60) |  |  |  |  |  |  | 0 (61 to 100) | 3 (0 to 5) |  | Amount of disease grading, disease H ([4]; 50 ppm spray + 200 ppm soil drench): 3 (0 to 5)
Fc1nc(F)c(Cl)c(Nc2c(Cl)c(Cl)c(Cl)c(Cl)c2Cl)c1Cl [Compound 9, 3,5-Dichloro-2,6-difluoro-4(pentachloroanilino)pyridine] |  |  |  |  |  |  |  |  |  |  |  |  |  |  |  | 2 (6 to 25) |  | Amount of disease grading, disease H ([4]; 100 ppm spray and drench): 2 (6 to 25); abnormal growth effects in larva of mosquitos [5]: abnormal growth effects
Fc1nc(F)c(Cl)c(Nc2c(F)c(F)c(F)c(F)c2F)c1Cl [Compound 10, 3,5-Dichloro-2,6-difluoro-4(pentafluoroanilino)pyridine] |  |  |  |  |  |  |  |  |  |  |  |  |  |  |  | 3 (0 to 5) |  | abnormal growth effects in larva of mosquitos [5]: abnormal growth effects
N#Cc1c(F)c(F)c(Nc2c(Cl)c(F)nc(F)c2Cl)c(F)c1F [Compound 19, 4(4-Cyano-2,3,5,6-tetrafluoroanilino)-3,5-dichloro-2,6-difluoropyridine] | 3 (0 to 5) | 3 (0 to 5) | 3 (0 to 5) | 3 (0 to 5) | 3 (0 to 5) | 3 (0 to 5) | 3 (0 to 5) |  |  | 3 (0 to 5) | 3 (0 to 5) | 3 (0 to 5) | 3 (0 to 5) | 3 (0 to 5) | 3 (0 to 5) | 2 (6 to 25) |  | 
O=[N+]([O-])c1cc(Cl)cc([N+](=O)[O-])c1Nc1c(Cl)c(F)nc(F)c1Cl [Compound 29, 3,5-Dichloro-2,6-difluoro-4(4-chloro-2,6-dinitroanilino)pyridine] | 3 (0 to 5) | 3 (0 to 5) | 3 (0 to 5) | 3 (0 to 5) | 3 (0 to 5) | 3 (0 to 5) | 3 (0 to 5) | 3 (0 to 5) | 3 (0 to 5) | 3 (0 to 5) | 3 (0 to 5) | 3 (0 to 5) | 3 (0 to 5) | 3 (0 to 5) | 3 (0 to 5) |  | 3 (0 to 5) | Amount of disease grading, disease H (Table 4) ([4]; 100 ppm spray and drench): 3 (0 to 5); Amount of disease grading, disease G* (Table 4) [7]: 3 (0 to 5)
N#Cc1cc([N+](=O)[O-])c(Nc2c(Cl)c(F)nc(F)c2Cl)c([N+](=O)[O-])c1 [Compound 34, 4(4-Cyano-2,6-dinitroanilino)-3,5-dichloro-2,6-difluoropyridine] | 3 (0 to 5) | 2 (6 to 25) | 3 (0 to 5) | 0 (61 to 100) | 3 (0 to 5) | 3 (0 to 5) | 3 (0 to 5) | 1 (26 to 60) | 3 (0 to 5) | 3 (0 to 5) | 3 (0 to 5) | 3 (0 to 5) | 3 (0 to 5) | 3 (0 to 5) | 0 (61 to 100) |  | 3 (0 to 5) | 
O=[N+]([O-])c1cc(Br)c(Nc2c(Cl)c(F)nc(F)c2Cl)c([N+](=O)[O-])c1 [Compound 40, 4(2-Bromo-4,6-dinitroanilino)-3,5-dichloro-2,6-difluoropyridine] | 3 (0 to 5) | 0 (61 to 100) | 3 (0 to 5) | 1 (26 to 60) | 3 (0 to 5) | 3 (0 to 5) | 3 (0 to 5) | 2 (6 to 25) | 0 (61 to 100) | 3 (0 to 5) | 3 (0 to 5) | 3 (0 to 5) | 3 (0 to 5) | 3 (0 to 5) | 1 (26 to 60) |  | 3 (0 to 5) | Amount of disease grading, disease H (Table 4) ([4]; 100 ppm spray and drench): 3 (0 to 5); Amount of disease grading, disease G* (Table 4) [7]: 2 (6 to 25)
